The source of these data is ChEMBL document CHEMBL1157539, “Thousands of chemical starting points for antimalarial lead identification” (Nature, 2010).

The structures appear in SMILES notation. The full ranking holds about 13,000 compounds; the median of “IFI” is about 4, and the highest 2% start at about 17. Some of the results follow.

This test is described as follows: GSK_TCMDC: Inhibition Frequency Index (IFI). The number of non-kinase HTS assays where a compound showed > 50 % inhibition, expressed as a percentage of the number of such assays in which the compound was tested (-0 is zero). It counts as functional.
Turning to `COc1ccccc1CCNC(=O)c1cc(Br)cc(N2CCN(c3ccncc3)CC2)c1`, the IFI came out at 6.9%.

The compound `Cc1cc(F)ccc1-c1nc(N(C)CCN(C)C(=O)N(C)c2ccccc2)nc2c1ccc(=O)n2-c1c(F)cccc1F` had an IFI of 7.91%.

For `COc1cccc2c(NN=Cc3ccccc3F)ccnc12`, the IFI is 3.65%. Regarding `CCN(CC)CCCOC(=O)c1ccc2c(c1)-c1ccc(C(=O)OCCCN(CC)CC)c3cccc-2c13`, the IFI turned out to be 3.68%.

Compound `Cc1noc(C)c1-c1ccc2c(Nc3ccccc3C(C)(C)C)c(C(=O)NCc3ccc4c(c3)OCO4)cnc2c1` showed an IFI of 6.9%. The compound `O=C1c2ccccc2-n2c1nc1ccccc1c2=O` registered an IFI of 2.99%. In the case of `Cc1cc(Cl)c(S(=O)(=O)N(C)c2ccccc2)cc1OCC(=O)NC1CCCCC1`, the IFI was 1.79%. The compound `c1cncc(CCNCc2ccc(-c3ccc(CNC4Cc5ccccc5C4)cc3)cc2)c1` displayed an IFI of 4.23%. Take `Cc1cccc2nc(-c3ccc(-c4cccc(CNCc5cccc(N)c5)c4)cc3)[nH]c12`: the IFI is 6.67%. The same measure for `COc1cc2nc(NCCc3cccc(Cl)c3)nc(NCc3ccccc3)c2cc1OC`: 17.1%. The compound `CCNc1cc(C(=O)N[C@@H](Cc2ccccc2)[C@H](O)CNC2(CC(C)C)CC2)cc(N2CCCCS2(=O)=O)c1` showed an IFI of 2.22%. The compound `Cc1cc(Oc2ccc(-n3ccnc3)cc2)nc(N2CCN(CCCN3CCCC3)CC2)n1` registered an IFI of 3.81%.

For the compound `Cc1cc(C)c(C(=O)Nc2n[nH]c3nnc(-c4cccc(F)c4F)cc23)c(C)c1`, the IFI is -0%. On to `CCc1cn2c3c(cc(C(=O)N[C@@H](Cc4cccc(F)c4)[C@H](O)CNC4CCCCC4)cc13)N(C)S(=O)(=O)CC2`, for which the IFI stood at 2.94%. `CC(=O)N(C)C1CCN(Cc2ccc(-c3cccc(-c4nc5cc(F)ccc5[nH]4)c3)cc2)C1` (stereo unspecified): the IFI was 1.43%.

For `CC1CCCCN1CCCNc1nc(NCc2ccccc2)c2ccccc2n1` (stereo unspecified), the IFI came out at 5%. With `O=C(Nc1ccc(-c2cccc(-c3nc4cc(C(F)(F)F)ccc4[nH]3)c2)cc1)c1cccnc1`, the IFI was determined as 3.67%. `NC(=O)c1cccc(C(=O)Nc2cccc(-c3ccc(-c4nc5cc(C(F)(F)F)ccc5[nH]4)cc3)c2)c1` showed an IFI of 6.67%. Regarding `COc1cc(NCCCNC(=O)c2cc3c(Cl)cc(Cl)cc3[nH]2)nc2ccccc12`, the IFI was found to be 14.2%. On to `CC(C)CCN1CCCN(Cc2ccc(C(=O)Nc3ccc(Cl)cc3)cc2)CC1`, for which the IFI was determined as 10%.

For `CN(C)c1ccc(NC(=O)Nc2ccnc3ccccc23)cc1Br`, the IFI stood at 6.61%. The compound `Clc1cc(Nc2ccnc3ccc(Br)cc23)ccc1Oc1ccc(Cl)c2ccccc12` returned an IFI of 0%. As to `CCOC(=O)C1=C(C)NC2=C(C(=O)CC(C)(C)C2)C1c1ccc(Br)cc1` (stereo unspecified), the IFI worked out at 1.57%. `Cn1ccnc1CNC(=O)c1ccc(-c2cccc(-c3nc4cc(F)ccc4[nH]3)c2)cc1` returned an IFI of 4.63%.

`CCCC(CNCc1cccc(OC(F)(F)C(F)F)c1)CNc1cc(=O)c2ccccc2[nH]1` (stereo unspecified): the IFI came to 2.86%. The same measure for `Oc1ccc(Nc2nc(N3CCCC3)c3ccccc3n2)cc1`: 9.09%.

As for `Cc1nc(N)nc(N)c1-c1ccc2ccccc2c1`, the IFI is 2.21%. In turn, `N=C1c2ccccc2CN1CC(=O)c1ccc(Cl)c(Cl)c1` had an IFI of 1.39%.

Take `Oc1cc(NCc2ccccc2NCc2ccc(Cl)c(Cl)c2)nc2ccccc12`: the IFI turned out to be 9.02%. On to `OC1CCCN(Cc2cccc(-c3ccc(-c4nc5cc(F)ccc5[nH]4)cc3)c2)C1` (stereo unspecified), for which the IFI was -0%.

On to `Nc1ncc(-c2ccc(Cl)c(Cl)c2)c(N)n1`, for which the IFI turned out to be 1.49%. The same measure for `Cc1ccc(Nc2nccc(Nc3ccc4c(c3)nc(Nc3cc(C(C)(C)C)on3)n4C)n2)cc1S(C)(=O)=O`: 7.63%.

As to `COc1ccc2nccc([C@@H](O)CN3CCC(NCc4ccc5c(c4)OCCO5)CC3)c2c1`, the IFI is 6.06%. `COc1ccc(C2C(C(=O)OC3CCCCC3)=C(C)NC3=C2C(=O)CCC3)cc1Br` (stereo unspecified): the IFI is 4.76%.

`CCCn1c(Sc2ccc(C#N)c([N+](=O)[O-])c2)nnc1-c1cc(OC)cc(OC)c1` returned an IFI of 3.5%. In turn, `COc1c(C2CCN(CCCCNC(=O)c3ccc(-c4ccc(C#N)cc4)cc3)CC2)cc(Cl)c2c1CCCC2` had an IFI of 9.52%.

In the case of `Cc1nc2nc(N)nc(N)c2c(C)c1Cc1cccc(C(F)(F)F)c1`, the IFI was determined as 2.19%.

The compound `NCC1CCCN1Cc1cccc(-c2ccc(-c3nc4ccccc4[nH]3)s2)c1` (stereo unspecified) showed an IFI of 0.97%. The same measure for `O=C(NC1CC1)c1ccc(N2CCN(Cc3ccc(Cl)cc3)CC2)nc1`: 2.04%; for `CC(C)c1ccc(NS(=O)(=O)c2cccc(C(=O)NC3CCN(CC4CCCCC4)CC3)c2)cc1`: 1.71%; for `CCNCc1ccc(-c2cccc(-c3nc4ccccc4[nH]3)c2)cc1`: 2.91%. The compound `CCc1ccc(NC(=O)c2ccc(CN3CCCN(Cc4cccc(C)c4)CC3)cc2)cc1` yielded an IFI of 12.3%. In the case of `O=C(Cc1ccc[n+]([O-])c1)Nc1cccc(-c2cccc(-c3nc4cc(F)ccc4[nH]3)c2)c1` it was 3.67%. In turn, `COc1c(C2CCN(CCCCNC(=O)c3ccc(-c4ccc(Cl)cc4)cc3)CC2)ccc2c1C(C)(C)CCC2(C)C` displayed an IFI of 6.82%. In the case of `Cc1cccc2nc(-c3cccc(-c4ccc(CN5CCCC5CN)cc4)c3)[nH]c12` (stereo unspecified) it was 8%; in that of `N#Cc1ccc(-c2ccc(OCC(O)CN3CCCN(Cc4cccc(O)c4Cl)CC3)cc2)cc1` (stereo unspecified), 7.63%; in that of `C=CC(=O)Nc1ccc(Cl)cc1C(O)c1ccccc1` (stereo unspecified), 1.41%. Compound `Cc1[nH]c(C)c(Cc2ccc(Oc3ccc(OC(F)(F)F)cc3)cc2)c(=O)c1Br` had an IFI of 5.66%. In the case of `COc1ccc(CN(C)CCOc2ccc(NC(=O)c3cccc4c(=O)cc(-c5ccccc5)[nH]c34)cc2)cc1OC`, the IFI came out at 5.84%.

As for `CCN(CC)CCN(Cc1ccc(-c2ccc(C(F)(F)F)cc2)cc1)C(=O)Cn1c(SCc2ccc(F)cc2)nc(=O)c2sccc21`, the IFI was 5.07%.

In the case of `Cc1cc(C(F)(F)F)n2nc(C3CCN(Cc4cc(C)c(O)c(C)c4)C3)cc2n1` (stereo unspecified), the IFI turned out to be 4.65%. In the case of `CNCCNCc1ccc(-c2ccc(-c3nc4cccc(C)c4[nH]3)cc2)cc1` it was 12.9%; in that of `COc1ccc(S(=O)(=O)NCC2CCCN(CCCCCNC(=O)/C=C/c3ccc(Cl)c(Cl)c3)C2)cc1` (stereo unspecified), 9.22%; in that of `COc1c(OC)c(OC)c2ccccc2c1CCNCCCCNCCc1c(OC)c(OC)c(OC)c2ccccc12`, 18.3%. In the case of `CC(C)CCNc1nc(NCCc2ccccc2)c2cc(O)ccc2n1` it was 9.56%; in that of `O=C(Nc1cccc(CN2CCCN(Cc3ccc(O)cc3)CC2)c1)c1cccc(F)c1`, 0.68%; in that of `CCN(CCCN1CCCCC1)c1cc(C)nc(Nc2ccc(F)c(C(F)(F)F)c2)n1`, 6.33%.

Take `O=C(Nc1ccc(OCc2ccccc2)cc1)c1nc2ccccc2nc1Cl`: the IFI is -0%. With `CN1CCN(c2ccnc3ccc(NC(=O)Nc4cccc(C#N)c4)cc23)CC1`, the IFI was 1.41%. As for `CN(C(=O)C1(c2ccc(Cl)cc2)CC1)C1CCN(CCCCCNC(=O)/C=C/c2ccc(Cl)c(Cl)c2)CC1`, the IFI is 10.9%. In turn, `c1ccc(Oc2ccc(Nc3ccnc4cc(-c5ccc(CN6CCOCC6)o5)ccc34)cc2)nc1` showed an IFI of 6.43%. In the case of `CC(C)(C)c1ccc(S(=O)(=O)Nc2ccccc2Cn2nc(N3CCNCC3)ccc2=O)cc1` it was 2.07%. Turning to `O=C(Nc1ccc(-c2ccccc2)cc1)Nc1cccc(Cn2ncc(N3CCNCC3)c(Cl)c2=O)c1`, the IFI was determined as 8.22%. With `CCNCc1cccc(-c2ccc3ccnc(N)c3c2)c1`, the IFI was determined as 3.77%. Compound `Cc1cc(C2CCN(CCCCNC(=O)c3ccc(NC(=O)c4ccc(Cl)cc4)cc3)CC2)c(C)cc1OCc1ccccn1` gave an IFI of 1.52%. In turn, `Cc1ccc(C2=NNC3(S2)C(=O)N(C)c2ccccc23)cc1` (stereo unspecified) yielded an IFI of 5.04%.

Turning to `CCCCCCCN(Cc1ccc(OC(C)(C)C(=O)OCC)cc1)C(=O)Nc1ccccc1OCC`, the IFI turned out to be 0.74%. For `C=CCn1c(Cc2ccccc2)nnc1Sc1ccc(C#N)c([N+](=O)[O-])c1`, the IFI stood at 2.11%.

In the case of `COc1ccc(-c2cnc(NCc3ccccc3)nc2)cc1CNC1CCN(C)CC1`, the IFI came to 6.94%. `Nc1c(Cl)cc(C(O)CNCCCCCOCCCc2ccc(O)c3ncccc23)cc1Cl` (stereo unspecified) yielded an IFI of 15.6%. Compound `FC(F)(F)c1ccc2[nH]c(-c3ccc(-c4cccc(CNCCN5CCNCC5)c4)cc3)nc2c1` showed an IFI of 10.7%. For the compound `O=C(/C=C/c1ccc(Cl)c(Cl)c1)NCCCCCCN1CCN(C(=O)Nc2ccc(F)c(Cl)c2)CC1`, the IFI is 8.8%. The compound `Cc1cc(=O)[nH]c(-n2nc(C)cc2NC(=O)C(c2ccccc2)c2ccccc2)n1` showed an IFI of 10.4%. `CN(C)/C(=N/C(=N)Nc1ccc(Cl)cc1)NCCCCCCN/C(=N\C(=N)Nc1ccc(Cl)cc1)N(C)C` gave an IFI of 8.89%. Regarding `COc1ccc(C=Cc2cc(=N)c3ccccc3[nH]2)cc1`, the IFI worked out at 7.59%.

In the case of `COc1cccc(Nc2nc(C)cc(NC3CCCC3)n2)c1`, the IFI is 14.7%. `CC(Sc1nnc(-c2cccs2)[nH]1)C(=O)c1c[nH]c2ccccc12` (stereo unspecified) came in with an IFI of 1.92%. `CS(=O)(=O)CCNCc1ccc(-c2ccc3c(Nc4ccc(F)cc4Cl)ccnc3c2)o1`: the IFI came to 10.1%. On to `CN1CCC(N(Cc2ccc(-c3ccc(C(F)(F)F)cc3)nc2)C(=O)Cn2c(CCc3cccc(F)c3F)cc(=O)c3ccccc32)CC1`, for which the IFI amounted to 9.7%. Regarding `CCCC(=O)c1cnc2c(Oc3cc(Cl)ncn3)cccc2c1Nc1ccccc1C`, the IFI amounted to 3.55%. In turn, `COc1ccc(C2(CNCC(O)c3cccc([N+](=O)[O-])c3)CCCC2)cc1OC` (stereo unspecified) yielded an IFI of 0.7%. In turn, `CS(=O)(=O)CCNCc1cccc(-c2ccc3c(Nc4ccc(Oc5cccnc5)cc4)ccnc3c2)c1` registered an IFI of 6.06%.

Compound `COc1ccc2nccc(N(C)CC3(O)CCN(CCc4ccc5c(c4)OCCO5)CC3)c2n1` registered an IFI of 1.44%. With `CCn1c2c(c(=N)c3ccccc31)CCC2`, the IFI was determined as 0.75%.

For the compound `CC(Cc1ccc(NC(=O)c2ccc(CNCCCCc3ccccc3)cc2)cc1)NCCc1cccc(Cl)c1` (stereo unspecified), the IFI was 9.15%. `O=C(NC1CCN(Cc2ccccc2)CC1)c1cccc(Nc2nc(-c3ccccc3)cs2)c1` displayed an IFI of 10.1%. In the case of `CCCCN1C(=N)NC(c2ccccc2)(c2ccccc2)C1=O` it was 1.9%; in that of `NC1=NC2(CCCC2)C(c2ccc(Cl)c(Cl)c2)C(N)=N1` (stereo unspecified), 0.76%; in that of `O=C(N[C@H]1CCN(Cc2ccc(OC3CCN(Cc4ccccc4)CC3)cc2)C1)c1ccc(Cl)c(Cl)c1`, 10%. For `O=C1COc2ccc(S(=O)(=O)N3CCC[C@@H]3CCN3CCC(c4c[nH]c5cnccc45)CC3)cc2N1`, the IFI amounted to 1.48%.

Compound `Cc1cc(NCCCN2CCCC2=O)n2c(nc3ccccc32)c1C#N` yielded an IFI of 0.85%.
